The source of these data is PMC4336329 (PLoS ONE, 2015).

The whole screen tested about 310,000 compounds, of which about 2,200 (0.71%) showed an effect of 50% or more. The effect is printed as a negative number. The list shows a part of the results.

Chain of human ether-à-go-go-related gene (hERG) potassium channel (Q12809 whole entry, looked up): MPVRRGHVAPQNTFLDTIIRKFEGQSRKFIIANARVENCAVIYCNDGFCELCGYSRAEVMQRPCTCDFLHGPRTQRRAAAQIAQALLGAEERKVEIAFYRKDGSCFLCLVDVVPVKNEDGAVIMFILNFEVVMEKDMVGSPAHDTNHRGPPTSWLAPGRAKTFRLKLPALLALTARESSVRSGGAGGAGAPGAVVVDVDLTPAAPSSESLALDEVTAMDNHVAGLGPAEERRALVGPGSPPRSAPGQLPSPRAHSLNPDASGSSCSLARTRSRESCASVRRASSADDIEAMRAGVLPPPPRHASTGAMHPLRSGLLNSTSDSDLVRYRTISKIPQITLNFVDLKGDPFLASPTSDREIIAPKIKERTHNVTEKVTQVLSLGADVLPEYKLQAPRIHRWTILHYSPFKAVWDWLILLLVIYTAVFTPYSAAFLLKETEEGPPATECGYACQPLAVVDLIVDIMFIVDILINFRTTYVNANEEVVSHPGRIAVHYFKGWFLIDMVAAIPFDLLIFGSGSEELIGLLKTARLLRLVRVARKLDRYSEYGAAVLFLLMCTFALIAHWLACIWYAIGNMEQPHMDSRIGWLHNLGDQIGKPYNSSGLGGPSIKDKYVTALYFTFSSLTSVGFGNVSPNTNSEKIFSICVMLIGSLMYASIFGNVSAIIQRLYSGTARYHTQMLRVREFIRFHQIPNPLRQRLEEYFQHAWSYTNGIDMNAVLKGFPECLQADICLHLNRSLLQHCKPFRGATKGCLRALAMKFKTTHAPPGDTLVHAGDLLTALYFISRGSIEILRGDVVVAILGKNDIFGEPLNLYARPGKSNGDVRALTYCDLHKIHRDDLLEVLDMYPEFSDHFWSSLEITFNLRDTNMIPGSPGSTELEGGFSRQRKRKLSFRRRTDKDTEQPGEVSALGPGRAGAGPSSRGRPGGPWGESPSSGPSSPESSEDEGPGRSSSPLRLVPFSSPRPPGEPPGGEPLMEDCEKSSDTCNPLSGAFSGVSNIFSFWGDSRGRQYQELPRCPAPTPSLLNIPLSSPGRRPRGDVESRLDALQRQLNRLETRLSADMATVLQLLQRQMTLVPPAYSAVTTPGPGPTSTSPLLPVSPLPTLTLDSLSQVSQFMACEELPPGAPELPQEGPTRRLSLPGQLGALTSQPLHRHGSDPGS

This experiment concerns the target human ether-à-go-go-related gene (hERG) potassium channel (human, UniProt Q12809). The experiment in a line: primary screen, population patch clamp on CHO cells stably expressing hERG.
For the compound `O=C(Nc1ccccc1)Nc1ccc(F)c([N+](=O)[O-])c1`, the “hERG current change (%, negative = inhibition) at 1uM” value came out at 7.72%.
Consider `CCOc1ccc(NC(=O)CN(C)C(=O)c2ccc(-c3ccc(C(C)=O)cc3)o2)cc1OCC`, for which the “hERG current change (%, negative = inhibition) at 1uM” value turned out to be 10.5%.
As for `O=S(=O)(Nc1nc2ccccc2s1)c1cc(F)ccc1F`, the figure is 6.58%; as for `CC(C)c1ccccc1OCCCN1CCCC1.O=C(O)C(=O)O`, 2.42%; as for `COc1cc(C2Nc3ccccc3C(=O)N2c2ccccc2)ccc1O` (centres unmarked), 6.77%.
Regarding `CCOC(=O)C(C)n1nc(-c2ccccc2)c2ccccc2c1=O` (centres unmarked), the “hERG current change (%, negative = inhibition) at 1uM” value is given as 10.2%.
As for `O=C(/C=C/c1ccco1)OCc1nnc(-c2ccccc2)o1`, the figure is 11.9%; as for `O=C(CSc1nc2ccccc2c(=O)n1C1CC1)NCc1ccccc1`, -3.37%.
With `O=C(O)c1cccc(NS(=O)(=O)c2ccc3nnn(O)c3c2)c1`, the “hERG current change (%, negative = inhibition) at 1uM” value was 8.32%.
For `NC1=NS(=O)(=O)NC1c1ccc(Br)cc1` (centres unmarked), the “hERG current change (%, negative = inhibition) at 1uM” value was 14.1%.
`N#C/C(=C\c1ccc(-c2ccccc2)o1)C(=O)Nn1cnnc1`: the “hERG current change (%, negative = inhibition) at 1uM” value turned out to be 6.84%.
For `O=C(CN1CCN(S(=O)(=O)c2ccc(Cl)cc2)CC1)NCC1(N2CCOCC2)CCCCC1`, the “hERG current change (%, negative = inhibition) at 1uM” value was -2.18%.
In the case of `Cc1ccccc1-c1ccc(=O)n(CC(=O)Nc2ccc(C(=O)N3CCCC3)cc2)n1`, the “hERG current change (%, negative = inhibition) at 1uM” value is listed as 11.9%.
For `O=C(COC(=O)c1cc(-c2cccnc2)nc2ccccc12)Nc1ccc(F)cc1F` the value was 9.34%; for `CN(CC(=O)NCc1ccco1)C(=O)C1CC(=O)N(c2ccc3c(c2)OCCO3)C1` (centres unmarked), 7.67%.
As for `CC(=O)Nc1ccc(S(=O)(=O)NCC(=O)NCCCc2ccccc2)cc1`, the figure is 11.8%; as for `CCOC(=O)c1ccc(N2C(=O)CC(N(C)CCc3ccc(OC)c(OC)c3)C2=O)cc1` (centres unmarked), 4.1%.
Turning to `O=C1CN(C(=O)c2cc3ccccc3oc2=O)C(c2ccccc2)c2cc(F)ccc2N1` (centres unmarked), the “hERG current change (%, negative = inhibition) at 1uM” value came to 8.52%.
For the compound `COc1ccc(-c2cc(C(F)(F)F)nc(SCC(=O)NCc3cccs3)n2)cc1OC`, the “hERG current change (%, negative = inhibition) at 1uM” value came out at 1.61%.
`O=C(CC1C(=O)NCCN1C(=O)c1ccc([N+](=O)[O-])cc1)Nc1ccc(F)cc1` (centres unmarked): the “hERG current change (%, negative = inhibition) at 1uM” value is on record as 14.9%.
As to `COCCCNC(=O)/C=C/c1ccc(Cl)cc1`, the “hERG current change (%, negative = inhibition) at 1uM” value was 6.16%.
For `CC(C)(C#CCN1CCCCC1)OCCOC(c1ccccc1)c1ccccc1.Cl`, the “hERG current change (%, negative = inhibition) at 1uM” value is listed as 5.74%.
With `O=C(NCCc1ccccc1)c1ccc(CS(=O)Cc2ccc(Cl)cc2)o1` (centres unmarked), the “hERG current change (%, negative = inhibition) at 1uM” value worked out at 10.9%.
`O=S(=O)(Nc1nc2c(s1)CCCC2)c1ccc(F)cc1`: the “hERG current change (%, negative = inhibition) at 1uM” value is given as -5.69%.
Consider `O=C(Cc1ccc([N+](=O)[O-])cc1)N/N=C/c1ccco1`, for which the “hERG current change (%, negative = inhibition) at 1uM” value is 9.84%.
`COc1ccc(S(=O)(=O)NC2CC3CCC2C3)cc1Cl` (centres unmarked): the “hERG current change (%, negative = inhibition) at 1uM” value was 4.88%.
As for `S=C(Nc1ccccc1Cl)N(CCCN1CCOCC1)Cc1ccco1`, the figure is 6.53%; as for `Cc1ccc(NC(=O)C23CCC(C)(C(=O)[C@H]2Br)C3(C)C)cc1` (some centres unmarked), 8.48%.
For `c1ccc(-n2ncc3c2ncn2nnnc32)cc1`, the “hERG current change (%, negative = inhibition) at 1uM” value worked out at 12.7%.
For `Cc1cc(C(=O)OCC(=O)NCCC(C)C)c2ccccc2n1`, the “hERG current change (%, negative = inhibition) at 1uM” value amounted to 7.29%.
For `Cc1ccc(C2(C(F)(F)F)NC(=O)N3CCN=C3S2)cc1` (centres unmarked) the value was 9.52%.
With `O=C(CS(=O)(=O)c1ccccc1)Nc1ccc(Br)cn1`, the “hERG current change (%, negative = inhibition) at 1uM” value is recorded as 6.95%.
`Cc1cc(NC(=O)Nc2cc(F)ccc2F)no1`: the “hERG current change (%, negative = inhibition) at 1uM” value worked out at 6.23%.
With `CCN1CCN(C(c2cccs2)C(C)NC(=S)NC2CCCCC2)CC1` (centres unmarked), the “hERG current change (%, negative = inhibition) at 1uM” value is -5.14%.
`Cc1ccc(S(=O)(=O)N(C)S(=O)(=O)c2ccc(C#N)cc2)cc1`: the “hERG current change (%, negative = inhibition) at 1uM” value is reported as 6.91%.
For the compound `CCOC(=O)COn1c(=O)c(C)[n+]([O-])c2ccccc21`, the “hERG current change (%, negative = inhibition) at 1uM” value came out at 8.8%.
As for `CC(C)OC(=O)c1c(NC(=O)Cn2cnc([N+](=O)[O-])n2)sc2c1CCCC2`, the figure is 6.78%.
For `S=C1NCN(Cc2ccco2)CN1Cc1ccco1` the value was 12.7%; for `Fc1ccc(C[n+]2csc3ccccc32)cc1.[Br-]`, 5.78%.
As for `COCCn1c(N)c(C(=O)NCC2CCCO2)c2nc3ccccc3nc21` (centres unmarked), the figure is 6.59%; as for `O=C(Nc1nccs1)c1cccc(S(=O)(=O)N2CCCC2)c1`, 12.4%.
For the compound `CCCCNc1c(-c2ccc(SC(C)CC)cc2)nc2ccccn12.O=C(O)C(F)(F)F` (centres unmarked), the “hERG current change (%, negative = inhibition) at 1uM” value came out at 4.34%.
For `O=C(NCc1nnc(SCC(=O)N2CCN(c3ccccc3)CC2)o1)c1ccc(F)cc1` the value was 10.5%; for `Cc1cc(C(=O)CS(=O)(=O)c2ccccc2)cc(C)c1O`, 6.57%.
